Consider 23 molecules from the supplement of paper PMC11369174, “Proteome-scale characterisation of motif-based interactome rewiring by disease mutations” (Molecular Systems Biology, 2024).

Some of the results follow. This is a noisy data set.

USP7_MATH-TRAF__Q93009_53_206, sequence (chain, as listed by the source): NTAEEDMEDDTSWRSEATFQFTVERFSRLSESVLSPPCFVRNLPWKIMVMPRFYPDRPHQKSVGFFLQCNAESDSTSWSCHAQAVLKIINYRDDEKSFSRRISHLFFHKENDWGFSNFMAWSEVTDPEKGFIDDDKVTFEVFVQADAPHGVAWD

This assay concerns the target USP7_MATH-TRAF__Q93009_53_206. The experiment in a line: mutation enrichment score (mutant vs wild-type peptide binding to bait); baits are purified protein domains named by gene / domain / UniProt id / residues; peptides come from disordered regions of human proteins; higher = mutation enhances binding relative to wild type. The settings on record: number of wild-type / mutant comparisons summed (bounds the score): 5; paper call: no_effect; wild-type window: ….
As to IERSRKGSSGNASEVSVACLPERIHQMEENQHSTSEELQAT [T397P T397P], the mutation enrichment score is -2.7.
With QHPRTKSSRLQGSSLSSESAWHKAVEFSSGAKSPSKSGAQT [R1348W R1348W] the figure was 2.
With SELIELRETIEMLKAQNSAARAAIQGALNGPDHPPKDLRIR [Q1645R Q1645R] the figure was -2; with EKRSLAFEEGSQSTTISSLSKKSKEETGISLQDLLLEIYRS [E1991K E1991K], 3.
With MEEVSAIHTSQEDRSSGSTTGLHCVTDERNALRRSSAAHTH [E911G E911G] the figure was -2.9; with QSLTMTAEQKESELIELRETMEMLKAQNSAAQAAIQGALNG [I1634M I1634M], -2.
LERTCELIYLTQPSSSISTETNSALVLKVSWITFLLAKGEV [I185T I185T]: the mutation enrichment score is -3.
With WVVATKECKAELREHEHVVERISWAPESSYSSISEATGSET [C281R C281R] the figure was 3; with GLHTPASQATTLHVPSQDPASIQHLQPAHRLSASPTVSSSS [G574S G574S], -2; with AEQKESELIELRETIEMLKAHNSAAQAAIQGALNGPDHPPK [Q1640H Q1640H], -2.
With SHHHEASSWADSSRHSLVGQRQSSGPRTSRPRGSSVSQDSD [G2228R G2228R] the figure was -3.
In the case of ATQADLMELDMAMEPDRKAAGSHWQQQSYLDSGIHSGATTT [V22G V22G], the mutation enrichment score was determined as 2.
DSTYRKFSTKVTLNTVGHHHCPPPHQASVSGIQAELLTFPN [R124C R124C]: the mutation enrichment score came out at 2.8.
As for AAVSHWQQQSYLDSGIHSGASTTAPSLSGKGNPEEEDVDTS [T40S T40S], the mutation enrichment score was 2.9.
In the case of SPVPSPYAPQSPAGYMPYSHLSSYTTHPQMQQASVSSPIVA [P192L P192L], the mutation enrichment score came out at 1.
Turning to MEPAAGSSMEPSADWLATAARRGRVEEVRALLEAGA [L16R L16R], the mutation enrichment score came out at 1.9.
The value for LECMTWNQMNLGATLKGVAAASSSSVKWTEGQSNHSTGYES [G253A G253A] was -1.8.
In the case of HLYQHPSSAVLYHTEVAYDPKGILGTINSIVMAFLGVQAGK [E499K E499K], the mutation enrichment score was -3.
Regarding TKVTLNTVGHHHRPPPHQASISGIQAELLTFPNSSPGLRRQ [V132I V132I], the mutation enrichment score was determined as 1.
The value for LLPGLAGPSGEMVKSTTSLTLSSTSGSSDKVYAHQMVRTDS [S368L S368L] was 3; that for VEQTERSRKLAEQELIETSEPVQLLHSQNTSLINQKKKMDA [R1712P R1712P] was -2; that for VEQTERSRKLAEQELIETSEWVQLLHSQNTSLINQKKKMDA [R1712W R1712W] was -2.
The value for VEQTERSRKLAEQELIETSEQVQLLHSQNTSLINQKKKMDA [R1712Q R1712Q] was -2.
